# The supplement of paper PMC8728848
# This is one part of the list.
# Experiments:
# Assay in all cases: glycan array binding signal (z-score within array); higher = stronger binding
# Conditions in all cases: glycan notation: IUPAC condensed, linker removed; mutation: R186S
# [1] = target: Neu5Ac(a2-6)Gal(b1-4)GlcNAc(b1-2)Man(a1-3)Man(b1-4)GlcNAc(b1-4)GlcNAc
# Method in brief: (§1)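 The binding signal is a Z-score computed within each array and averaged over linkers. Arrays of the same protein sequence at different concentrations or buffers were also averaged together. Data originate from 3228 arrays in the Consortium for Functional Glycomics database, kept only where the protein sequence was available.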
# [2] = target: Neu5Ac(a2-6)Gal(b1-4)GlcNAc(b1-2)Man(a1-3)[Gal(b1-4)GlcNAc(b1-2)Man(a1-6)]Man(b1-4)GlcNAc(b1-4)GlcNAc
# Method in brief: as §1
# [3] = target: Neu5Ac(a2-6)Gal(b1-4)GlcNAc(b1-2)Man(a1-3)[GlcNAc(b1-2)Man(a1-6)]Man(b1-4)GlcNAc(b1-4)GlcNAc
# Method in brief: as §1
# [4] = target: Neu5Ac(a2-6)Gal(b1-4)GlcNAc(b1-2)Man(a1-3)[GlcNAc(b1-2)Man(b1-4)GlcNAc(b1-2)Man(a1-6)]Man(b1-4)GlcNAc(b1-4)GlcNAc
# Method in brief: as §1
# [5] = target: Neu5Ac(a2-6)Gal(b1-4)GlcNAc(b1-2)Man(a1-3)[Man(a1-6)]Man(b1-4)GlcNAc(b1-4)GlcNAc
# Method in brief: as §1
# [6] = target: Neu5Ac(a2-6)Gal(b1-4)GlcNAc(b1-2)Man(a1-3)[Neu5Ac(a2-6)Gal(b1-4)GlcNAc(b1-2)Man(a1-6)]Man(b1-4)GlcNAc(b1-4)GlcNAc
# Method in brief: as §1
# [7] = target: Neu5Ac(a2-6)Gal(b1-4)GlcNAc(b1-2)Man(a1-6)Man(b1-4)GlcNAc(b1-4)GlcNAc
# Method in brief: as §1
# [8] = target: Neu5Ac(a2-6)Gal(b1-4)GlcNAc(b1-2)Man(a1-6)[Gal(b1-4)GlcNAc(b1-2)Man(a1-3)]Man(b1-4)GlcNAc(b1-4)GlcNAc
# Method in brief: as §1
# [9] = target: Neu5Ac(a2-6)Gal(b1-4)GlcNAc(b1-2)Man(a1-6)[GlcNAc(b1-2)Man(a1-3)]Man(b1-4)GlcNAc(b1-4)GlcNAc
# Method in brief: as §1
# [10] = target: Neu5Ac(a2-6)Gal(b1-4)GlcNAc(b1-2)Man(a1-6)[Man(a1-3)]Man(b1-4)GlcNAc(b1-4)GlcNAc
# Method in brief: as §1
# [11] = target: Neu5Ac(a2-6)Gal(b1-4)GlcNAc(b1-3)Gal(b1-3)GlcNAc
# Method in brief: as §1
# [12] = target: Neu5Ac(a2-6)Gal(b1-4)GlcNAc(b1-3)Gal(b1-4)GlcNAc
# Method in brief: as §1
# [13] = target: Neu5Ac(a2-6)Gal(b1-4)GlcNAc(b1-3)Gal(b1-4)GlcNAc(b1-3)Gal(b1-4)GlcNAc
# Method in brief: as §1
# [14] = target: Neu5Ac(a2-6)Gal(b1-4)GlcNAc(b1-3)Gal(b1-4)[Fuc(a1-3)]GlcNAc(b1-3)Gal(b1-4)[Fuc(a1-3)]GlcNAc
# Method in brief: as §1
# [15] = target: Neu5Ac(a2-6)Gal(b1-4)GlcNAc(b1-3)GalNAc
# Method in brief: as §1
# [16] = target: Neu5Ac(a2-6)Gal(b1-4)GlcNAc6S
# Method in brief: as §1
# Neu5Ac(a2-6)GalNAc = target: Neu5Ac(a2-6)GalNAc
# Method in brief: as §1
# [17] = target: Neu5Ac(a2-6)GalNAc(b1-4)GlcNAc
# Method in brief: as §1
# [18] = target: Neu5Ac(a2-6)GlcNAc(b1-4)GlcNAc
# Method in brief: as §1
# [19] = target: Neu5Ac(a2-6)GlcNAc(b1-4)GlcNAc(b1-4)GlcNAc
# Method in brief: as §1
# Neu5Ac(a2-8)Neu5Ac = target: Neu5Ac(a2-8)Neu5Ac
# Method in brief: as §1
# [20] = target: Neu5Ac(a2-8)Neu5Ac(a2-3)Gal(b1-4)Glc
# Method in brief: as §1
# [21] = target: Neu5Ac(a2-8)Neu5Ac(a2-3)[GalNAc(b1-4)]Gal(b1-4)Glc
# Method in brief: as §1
# [22] = target: Neu5Ac(a2-8)Neu5Ac(a2-8)Neu5Ac
# Method in brief: as §1
# [23] = target: Neu5Ac(a2-8)Neu5Ac(a2-8)Neu5Ac(a2-3)Gal(b1-4)Glc
# Method in brief: as §1
# [24] = target: Neu5Ac(a2-8)Neu5Ac(a2-8)Neu5Ac(a2-3)[GalNAc(b1-4)]Gal(b1-4)Glc
# Method in brief: as §1
# [25] = target: Neu5Ac(a2-8)Neu5Ac(a2-8)Neu5Ac(a2-8)Neu5Ac(a2-3)[GalNAc(b1-4)]Gal(b1-4)Glc
# Method in brief: as §1
# [26] = target: Neu5Ac(b2-6)Gal(b1-4)GlcNAc
# Method in brief: as §1
# Neu5Ac(b2-6)GalNAc = target: Neu5Ac(b2-6)GalNAc
# Method in brief: as §1
# [27] = target: Neu5Ac9Ac(a2-3)Gal(b1-3)GlcNAc
# Method in brief: as §1
# [28] = target: Neu5Ac9Ac(a2-3)Gal(b1-4)GlcNAc
# Method in brief: as §1
# [29] = target: Neu5Ac9Ac(a2-6)Gal(b1-4)GlcNAc
# Method in brief: as §1
# [30] = target: Neu5Gc(a2-3)Gal(b1-3)GlcNAc
# Method in brief: as §1
# [31] = target: Neu5Gc(a2-3)Gal(b1-3)[Fuc(a1-4)]GlcNAc
# Method in brief: as §1
# Neu5Gc(a2-3)Gal(b1-4)Glc = target: Neu5Gc(a2-3)Gal(b1-4)Glc
# Method in brief: as §1
# [32] = target: Neu5Gc(a2-3)Gal(b1-4)GlcNAc
# Method in brief: as §1
# [33] = target: Neu5Gc(a2-3)Gal(b1-4)[Fuc(a1-3)]GlcNAc
# Method in brief: as §1
# [34] = target: Neu5Gc(a2-6)Gal(b1-4)GlcNAc
# Method in brief: as §1
# Neu5Gc(a2-6)GalNAc = target: Neu5Gc(a2-6)GalNAc
# Method in brief: as §1
# [35] = target: Neu5Gc(b2-6)Gal(b1-4)GlcNAc
# Method in brief: as §1
binder,measurement,setting,value
"Gal 3 (Homo sapiens), P17931 (protein) MADNFSLHDALSGSGNPNPQGWPGAWGNQPAGAGGYPGASYPGAYPGQAPPGAYPGQAPPGAYHGAPGAYPGAPAPGVYPGPPSGPGAYPSSGQPSAPGAYPATGPYGAPAGPLIVPYNLPLPGGVVPRMLITILGTVKPNANILDFQRGNDVAFHFNPRFNENNRRVIVCNTKLDNNWGREESQSVFPFESGKPFKIQVLVEPDHFKVAVNDAHLLQYNHRVKKLNEISKLGISGDIDLTSASYTMI",glycan array binding signal (z-score),[1],-0.007
same,glycan array binding signal (z-score),[2],0.028
same,glycan array binding signal (z-score),[3],-0.043
same,glycan array binding signal (z-score),[4],-0.022
same,glycan array binding signal (z-score),[5],-0.043
same,glycan array binding signal (z-score),[6],-0.05
same,glycan array binding signal (z-score),[7],-0.056
same,glycan array binding signal (z-score),[8],-0.053
same,glycan array binding signal (z-score),[9],-0.053
same,glycan array binding signal (z-score),[10],-0.024
same,glycan array binding signal (z-score),[11],-0.061
same,glycan array binding signal (z-score),[12],-0.042
same,glycan array binding signal (z-score),[13],-0.001
same,glycan array binding signal (z-score),[14],-0.061
same,glycan array binding signal (z-score),[15],-0.035
same,glycan array binding signal (z-score),[16],-0.084
same,glycan array binding signal (z-score),Neu5Ac(a2-6)GalNAc,-0.058
same,glycan array binding signal (z-score),[17],-0.073
same,glycan array binding signal (z-score),[18],-0.041
same,glycan array binding signal (z-score),[19],-0.029
same,glycan array binding signal (z-score),Neu5Ac(a2-8)Neu5Ac,-0.069
same,glycan array binding signal (z-score),[20],-0.054
same,glycan array binding signal (z-score),[21],-0.048
same,glycan array binding signal (z-score),[22],-0.045
same,glycan array binding signal (z-score),[23],-0.019
same,glycan array binding signal (z-score),[24],-0.078
same,glycan array binding signal (z-score),[25],-0.053
same,glycan array binding signal (z-score),[26],-0.083
same,glycan array binding signal (z-score),Neu5Ac(b2-6)GalNAc,-0.023
same,glycan array binding signal (z-score),[27],-0.069
same,glycan array binding signal (z-score),[28],-0.035
same,glycan array binding signal (z-score),[29],-0.058
same,glycan array binding signal (z-score),[30],-0.053
same,glycan array binding signal (z-score),[31],-0.066
same,glycan array binding signal (z-score),Neu5Gc(a2-3)Gal(b1-4)Glc,-0.08
same,glycan array binding signal (z-score),[32],-0.048
same,glycan array binding signal (z-score),[33],0.006
same,glycan array binding signal (z-score),[34],-0.063
same,glycan array binding signal (z-score),Neu5Gc(a2-6)GalNAc,-0.086
same,glycan array binding signal (z-score),[35],0.003
